Measurements as given in PubChem BioAssay AID686971 (National Center for Advancing Translational Sciences (NCATS), 2013).
About 7,500 (2.1%) of roughly 360,000 compounds were called active. The shares of active, inactive and inconclusive entries below differ from those in the screen. Calls come from the whole dose curve; as a rule, active = well fitted cell-killing curve with a large enough effect; inconclusive = small, poorly fitted or top-dose-only effect, or effect the other way, or another doubt; inactive = no such curve, though single readings can be large or run the other way. No potency is given beside an inconclusive call; the fits are too rough.

Assay: qHTS for induction of synthetic lethality in tumor cells producing 2HG: qHTS for the HT-1080-IDH1KD cell line;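 for activity, negative = toxicity: 0% = DMSO wells and -100% = cell-free medium wells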
Conditions: HT-1080 IDH1 knockdown viability, ATP luminescence, 48 h; activity, negative = toxicity: at 46.1 µM (top of the series) unless noted
Procedure, shortened: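 % activity derives from luminescence (CellTiter-Glo), normalised to DMSO and no-cell wells. HT-1080-IDH1KD cells, 750/well, had 48 h compound exposure at 37 °C.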
Potency is the fitted concentration of half-maximal effect; tags give direction and shape of the fitted curve.

Structure (SMILES) | Potency | activity, negative = toxicity
COc1ccc(C)cc1Nc1n[n+](-c2ccccc2)c(-c2c(OC)ccc3ccccc23)s1 | inconclusive [cytotoxic, single point] | 
Cc1cc2oc3cc(NCCC4CCCN4C)ccc3c(=O)c2cc1C (stereo unspecified) | inconclusive [cytotoxic, single point] | 
O=[N+]([O-])c1cccc2nc3ccccc3c(NCCCn3ccnc3[N+](=O)[O-])c12 | active: 0.082 µM | 
CC1CCN(C(=O)COC(=O)c2ccc(F)c(S(=O)(=O)N3CCOCC3)c2)CC1 |  | inconclusive: 32.3%
O=C(CSCc1ccccc1)N1CCN(C(=O)c2ccco2)CC1 | inconclusive [rising, single point] | 
CC(C)(C)c1cc(NCc2ccccn2)n2ncc(-c3ccccc3)c2n1 | active: 20.6 µM | 
O=C1C=C(c2ccc3ccccc3c2)C[C@@H](c2ccc(F)cc2)C1 | inconclusive [cytotoxic, single point] | 
COC(=O)c1ccc(C)c(NS(=O)(=O)c2ccc(OC)cc2)c1 | inconclusive [cytotoxic, full curve] | 
CC1=C(C(=O)N(C(C)C)C(C)C)CC(CC(=O)NC(c2ccccc2)c2ccccc2)C(=O)N1CCC1=CCCCC1 (stereo unspecified) | inconclusive [cytotoxic, single point] | 
O=C(CN1CCC(C(=O)c2ccc3c(c2)OCCO3)CC1)NCc1ccccc1 | inconclusive [cytotoxic, single point] | 
COc1ccc(C2CC(c3ccccc3C(F)(F)F)=NN2c2ccc(S(N)(=O)=O)cc2)cc1 (stereo unspecified) | inconclusive [cytotoxic, single point] | 
Oc1cc(O)c2c(c1)O[C@H](c1ccc(O)c(O)c1)[C@@H](O)C2 | inactive | 
CCCCC[C@@H](C)N1C[C@H](COCc2ccccc2)Oc2cc(N3CCC[C@@H]3CO)ccc2S1(=O)=O | inconclusive [cytotoxic, single point] | 
O=C(/C=C/c1ccc(-c2ccc(F)cc2)o1)N1CCCC1 | inactive | 
O=P(CCCCCCCCCP(=O)(c1ccccc1)c1ccccc1)(c1ccccc1)c1ccccc1 | active: 23.1 µM | 
CCOc1ccccc1NC(=O)CN(c1ccc(C)cc1)S(=O)(=O)c1c(C)n[nH]c1C | inconclusive [cytotoxic, single point] | 
COc1ccc2nc(NC3=NC(c4ccccc4)CC(=O)N3)nc(C)c2c1 (stereo unspecified) | active: 18.4 µM | 
O=C(CN1CCCCCC1)Nc1ccc(Oc2ccccc2)cc1 | inconclusive [cytotoxic, partial curve] | 
COc1ccc(-c2csc(NC(=O)CCS(=O)(=O)c3ccccc3)n2)c(OC)c1 | inconclusive [cytotoxic, single point] | 
O=C(NCCCNc1ccnc2cc(Cl)ccc12)c1ccccc1F | inactive | 
N#CC1=C(N)Oc2cc(N)ccc2C1c1ccc(Cl)cc1 (stereo unspecified) | inconclusive [cytotoxic, partial curve] | 

Structure (SMILES) | Potency | activity, negative = toxicity
CC(C)NS(=O)(=O)c1ccc2[nH]c3nc(SCC(=O)Nc4ccc(F)c(F)c4)nnc3c2c1 | inconclusive [cytotoxic, partial curve] | 
NC(=O)c1oc2ccccc2c1NC(=O)c1ccco1 | inconclusive [cytotoxic, single point] | 
Oc1[nH]c2ccc(Br)cc2c1N=NC(=S)Nc1ccc(F)cc1 | inconclusive [cytotoxic, partial curve, poor fit] | 
COc1ccc(OC)c(-c2oc3ccccc3c(=O)c2O)c1 | inconclusive [cytotoxic, single point] | 
Cc1ccc(CN(Cc2cc3cccc(C)c3[nH]c2=O)C(=S)NCCCN(C)C)cc1 | inconclusive [cytotoxic, single point] | 
Cc1noc(C)c1S(=O)(=O)N1CCN(c2ccc(Cl)cc2)CC1 | inactive | 
O=C(O)C1C2C=CC(C2)C1C(=O)NC1CCS(=O)(=O)C1 (stereo unspecified) | inactive | 
Cc1nc2ccc(S(=O)(=O)Nc3ccccc3C)cc2s1 | inconclusive [cytotoxic, partial curve] | 
COc1ccc(-c2cc(NC=O)c3ncc(-c4cc(OC)c(OC)c(OC)c4)n3c2)c(OC)c1 | inconclusive [cytotoxic, full curve] | 
Cc1[nH]ccc2c1[nH]c1cc(=O)ccc12 | inconclusive [cytotoxic, partial curve] | 
CC(=O)C1=C(C)NC(SCC(=O)c2ccc(Cl)cc2)=C(C#N)C1c1ccco1 (stereo unspecified) | inconclusive [cytotoxic, single point] | 
COc1ccc2nc3cc(Cl)ccc3c(Nc3cc(C(C)C)c(O)cc3C)c2c1 | inconclusive [cytotoxic, single point] | 
Cn1c(=O)c2cc(NC(=O)Cc3cccc4ccccc34)ccc2n1-c1ccccc1 | inconclusive [cytotoxic, single point] | 
COc1cccc(C(=O)/C=C/c2ccc(OCC#N)c(OC)c2)c1 | inconclusive [cytotoxic, single point] | 
Cc1cc(Br)ccc1-n1[nH]c(C)c(C=Nc2cccc3nsnc23)c1=O | inconclusive [cytotoxic, partial curve] | 
COC(=O)[C@]12CCCCC=C1N(Cc1ccc(Cl)cc1Cl)C(=O)[C@H](CC(=O)N1CCC(c3ccccc3)CC1)C2 | inactive | 
COc1cccc(NC(=O)CSc2nc3ccccc3c3nc4ccccc4n23)c1 | inconclusive [cytotoxic, partial curve] | 
Cc1ccc2[nH]c(=O)c(CN(CCCN(C)C)C(=S)NCCc3ccccc3)cc2c1 | active: 18.4 µM | 
Cc1ccc(Cn2cccc2/C=C2/C(=N)N3C=CSC3=NC2=O)cc1 | inconclusive [cytotoxic, single point] | 
CCCCOc1ccc(C(C)NC(=O)CCS(=O)(=O)Cc2ccc(Cl)cc2)cc1 (stereo unspecified) | inconclusive [cytotoxic, partial curve] | 
